Measurements from the supplement of paper PMC3334620.
In all, about 33,000 sequences were measured (“E-score (-0.5 to 0.5)”: median about -0.054, highest 2% from about 0.35 on). This is one part of the list.

The sequences below were run against T1, Stb5 (UniProt P38699) (assay: PBM E-score (8-mer binding enrichment) (E-score (-0.5 to 0.5)); higher = stronger / more preferred TF binding; most listed sequences are background and not binding sites). Conditions: protein concentration: 200 nM; construct: GST-full length.
T1 sequence: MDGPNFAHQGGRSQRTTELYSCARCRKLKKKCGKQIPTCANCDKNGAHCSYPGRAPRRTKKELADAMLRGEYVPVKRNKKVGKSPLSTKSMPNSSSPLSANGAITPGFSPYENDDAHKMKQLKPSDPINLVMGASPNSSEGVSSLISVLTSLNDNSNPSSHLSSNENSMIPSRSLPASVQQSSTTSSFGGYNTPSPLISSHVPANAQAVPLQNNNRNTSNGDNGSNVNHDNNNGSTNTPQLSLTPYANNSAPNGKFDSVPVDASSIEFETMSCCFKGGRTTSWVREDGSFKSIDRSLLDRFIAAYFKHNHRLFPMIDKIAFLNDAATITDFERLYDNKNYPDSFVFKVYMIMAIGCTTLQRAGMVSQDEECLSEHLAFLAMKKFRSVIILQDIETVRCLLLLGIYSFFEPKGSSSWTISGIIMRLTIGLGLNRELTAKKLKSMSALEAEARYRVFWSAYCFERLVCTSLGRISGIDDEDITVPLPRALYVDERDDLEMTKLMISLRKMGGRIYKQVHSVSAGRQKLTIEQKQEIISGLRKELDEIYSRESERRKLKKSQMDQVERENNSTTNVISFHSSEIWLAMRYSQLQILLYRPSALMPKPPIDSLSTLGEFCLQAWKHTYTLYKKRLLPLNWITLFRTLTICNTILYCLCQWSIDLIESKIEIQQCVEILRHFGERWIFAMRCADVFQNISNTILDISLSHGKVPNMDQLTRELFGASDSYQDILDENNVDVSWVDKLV
Method in brief: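 Bound GST-tagged yeast transcription factors, applied at about 100-200 nM to double-stranded universal all-10-mer Agilent arrays, were detected with fluorescent anti-GST. Scans were normalised with masliner. A modified Wilcoxon-Mann-Whitney statistic, the E-score, was assigned to each ungapped eight-base word pooled with its reverse complement by the Universal PBM Analysis Suite.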

| Sequence | PBM E-score |
| --- | --- |
| GCAACAGA | -0.0274 |
| AACCTCAT | -0.22 |
| ACGTGCGA | -0.0649 |
| CTCACCAA | -0.173 |
| ATGGAATC | -0.123 |
| GCTGGCAC | -0.112 |
| CAGCACCC | 0.0571 |
| ATCAAGAG | -0.215 |
| ATTTGTCC | 0.324 |
| ATTGGACC | 0.0306 |
| AACCGCAA | 0.12 |
| CCAAAGCC | 0.00656 |
| CCGTCTAG | 0.191 |
| ACACAGTC | -0.0536 |
| GTCTCTAA | -0.221 |
| ACTACATA | -0.172 |
| CTGATGCC | 0.0203 |
| CTAATCAC | 0.189 |
| CTTTCTCC | -0.0508 |
| AAGGACTG | -0.365 |
| GCCCTAAC | 0.0652 |
| GTTCCCGA | 0.235 |
| CTCATGGC | -0.00167 |
| TAGCTATA | -0.193 |
| GGACAAAA | 0.267 |

| Sequence | PBM E-score |
| --- | --- |
| CGGCATTC | 0.285 |
| GGGGTATA | 0.26 |
| ACATGGAC | -0.235 |
| AGCCCACA | -0.26 |
| ATGCACCC | 0.0568 |
| CACTCGAC | -0.115 |
| CTGGGAAG | -0.184 |
| AAAGGGCC | -0.0038 |
| TCATTTCA | -0.109 |
| CAAATGTC | -0.0119 |
| CTGAGAAC | -0.127 |
| ATTGGCGC | -0.0479 |
| ACTTAAGC | 0.134 |
| CGGGACGA | 0.164 |
| AAAAAGAG | -0.258 |
| GCGAATAA | 0.00672 |
| AGACCGAG | 0.177 |
| AAGTCCAG | -0.133 |
| CCAGGGCC | 0.0327 |
| GGAATGGA | -0.121 |
| ACGATAAG | -0.0682 |
| AATTCTAC | -0.289 |
| GCTTGCAA | -0.0391 |
| TAATCTCA | -0.151 |
| ACGGGCTA | 0.146 |

| Sequence | PBM E-score |
| --- | --- |
| CTTCTGAA | -0.0858 |
| CCGCGACG | 0.303 |
| ACATGGCG | 0.0157 |
| AAGTTAAA | -0.143 |
| ATAGGTAG | -0.258 |
| ACTAAAAC | 0.129 |
| TACGAAAA | -0.253 |
| AGCTGTCC | -0.237 |
| GGGTGTCA | -0.073 |
| TACGCCTA | -0.211 |
| AGAGTTTG | -0.0532 |
| CGTCACCA | -0.0795 |
| AAACCTGC | -0.198 |
| CCCCGACC | 0.355 |
| AATAATGC | 0.108 |
| CGGCAACA | 0.332 |
| TAGAGCGA | -0.0549 |
| CGGAGCAA | 0.316 |
| CGGATCTA | 0.424 |
| CTCTTACA | -0.239 |
| ATGTAAAC | 0.171 |
| ACTCCCGC | 0.253 |
| ACACGCCA | -0.155 |
| GTTCGCCA | -0.209 |
| AAAGGACT | -0.0879 |

| Sequence | PBM E-score |
| --- | --- |
| GCCCGCAA | 0.152 |
| CATCAAAA | -0.153 |
| AAACTAAG | -0.114 |
| ACAGATAT | -0.123 |
| ACGTTTCG | -0.0366 |
| ATCATCAT | -0.158 |
| GAATAGGA | -0.132 |
| CCCCTCCC | 0.0118 |
| TAAAAGTA | 0.0185 |
| AATCAAGA | 0.0435 |
| ATGGCCCA | -0.167 |
| GATTTCAA | 0.034 |
| TGATAAAA | 0.0867 |
| ATGATTAG | -0.0345 |
| ATAGGACG | -0.0892 |
| AGCCACCT | -0.316 |
| GGCTACCA | -0.267 |
| CGTTACGA | 0.0335 |
| GCCGTGAC | 0.142 |
| GCATGCGA | 0.0292 |
| GGTTCTGA | -0.0576 |
| ATCGACTC | -0.204 |
| AGTCATCA | -0.186 |
| AGCCCAAC | -0.183 |
| CGTCGCAG | 0.0811 |

| Sequence | PBM E-score |
| --- | --- |
| ACGTAACC | -0.0823 |
| GGACATTA | 0.338 |
| GGATGGTA | -0.118 |
| CAATGATG | -0.192 |
| CCCGGTGA | 0.261 |
| ACTGACCG | 0.115 |
| CATCTTGA | -0.0443 |
| GGAGATAC | 0.32 |
| CTTCCCGA | 0.0298 |
| CGTGACAA | -0.0215 |
| GGGACGAA | 0.107 |
| CAGGGCGA | -0.0756 |
| ATCTTGAG | -0.162 |
| AACGCATT | -0.0528 |
| AGTGTGCC | -0.0438 |
| CGGGGGTA | 0.451 |
| CCCGAAAA | 0.248 |
| AGGCTAAT | -0.0423 |
| CACGCTTA | -0.149 |
| AATGCTGT | -0.0756 |
| GCCTGCCA | -0.271 |
| CATGTACC | -0.0343 |
| ACTGTAAA | -0.106 |
| AAACCAAA | -0.0629 |
| ATGGGTAG | -0.221 |

| Sequence | PBM E-score |
| --- | --- |
| CATAAGAC | 0.131 |
| TGACCGAA | 0.0381 |
| ACCCGGAG | 0.246 |
| GCCGACAC | 0.239 |
| GAGGATTA | -0.122 |
| CTTCGATA | 0.0184 |
| GAACTTGC | -0.124 |
| GGCAGTAA | 0.256 |
| GCAGCACA | -0.17 |
| CTATCGAG | -0.186 |
| CCGTACTC | 0.0597 |
| GGTCACCA | -0.378 |
| GCCGCCTA | 0.139 |
| AGTTATCG | 0.195 |
| CGTGGGGC | 0.0662 |
| AAGCTAAT | -0.016 |
| ACCAACAT | -0.0205 |
| CTGTGTAC | -0.00391 |
| CCAGCGAA | -0.194 |
| CAGGTGAA | -0.236 |
| CAGATCCA | -0.0305 |
| CCAAAACC | -0.0249 |
| GTCAACAA | -0.169 |
| AGCCAGCC | -0.347 |
| AAATAGTA | 0.00695 |

| Sequence | PBM E-score |
| --- | --- |
| ACTGTCTG | -0.128 |
| ATCCGCGA | 0.168 |
| AAGGTATA | -0.0982 |
| ACCAATGG | -0.0752 |
| TAAGCGCA | -0.215 |
| CACCCACC | 0.044 |
| CCCCAGAA | -0.111 |
| CCCAGAGC | -0.176 |
| GGCATACA | -0.0504 |
| ACAGTCAC | -0.224 |
| TAAGTTGA | -0.124 |
| ACTTCCCT | -0.2 |
| CAGGCGTA | -0.0661 |
| GAGTGCCC | -0.146 |
| GGTTCACA | -0.138 |
| GGCGATGA | 0.0312 |
| CGGCCAGC | 0.0393 |
| AGCCCGAG | 0.05 |
| AGAGCTCT | -0.0693 |
| ACCAGCAC | -0.2 |
| CCAAGCCG | -0.056 |
| CGAACTTA | 0.084 |
